According to PubChem BioAssay AID1745849 (National Center for Advancing Translational Sciences (NCATS), 2022):
Among all 2,100 compounds or so, about 320 (15%) were called active. Inconclusive results, whose numbers are uncertain, are shown with a selection of clear calls. The call rests on the fitted dose curve; in most records, active means well fitted cell-killing curve with a large enough effect; inconclusive means small, poorly fitted or top-dose-only effect, or effect the other way; inactive means flat fitted curve, though single readings scatter. A potency beside an inconclusive call is a rough fit, not a confirmed value.

Assay: Viability Counterscreen for CMV-Luciferase Assay of Inhibitors of ATXN expression; further: nearly all actives have a fitted effect of over 55% in size
Conditions: HEK-293 CMV-luciferase cells viability, protease fluorescence, 24 h
Text: PI: Daniel Scoles Ph.D. University of Utah School of Medicine, Salt Lake City, Utah MLPCN Grant: NS073009 Spinocerebellar ataxia type 2 (SCA2) is a multisystem neurodegenerative disease caused by a dominantly acting mutation leading to expansion of a polyQ domain in the ataxin-2 protein (ATXN2). SCA2 patients develop progressive ataxia and later lose function in other neuronal systems. Prominent parkinsonian signs develop in some patients. Like many neurodegenerative disorders, no symptomatic or disease-modifying treatments are known. The primary objective of the proposed research is to identify compounds inhibiting ATXN2 expression and to test them for efficacy in SCA2 mouse models. We have developed a cell-based assay paired with an in vivo mouse model using identical luciferase expression constructs. This approach takes advantage of an ATXN2-luciferase transgene, with the luciferase gene flanked by the upstream and downstream portions of the ATXN2 gene. Here we describe a 5-7 dose quantitative high thoroughput screen (qHTS) for compounds lowering ATXN2 expression. We screened the NIH Molecular Libraries Small Molecule Repository (MLSMR) and NCGC's mechanistically annotated (MIPE) and drug repurposing (NPC) collections of compounds for lowering expression of an ATXN2-luciferase reporter in HEK-293 cells. The assay is a multiplexed cell viability assay to ensure target reduction in the absence of cytotoxicity. Secondary qHTS assays included a CMV-luciferase reporter expressed in HEK-293 cells as well as a biochemical assay using recombinant luciferase to detect inhibitors of the reporter enzyme. Compounds that inhibit ATXN2 expression but is not cytotoxic were selected for confirmatory and secondary screens.
PROTOCOL TABLE (as described by Inglese J, Shamu CE and Guy RK. 2007) SEQUENCE No. (e.g., 1, 2, 3, etc.); […] (e.g., Cells, Incubation, Reagent, etc.); VALUE; DESCRIPTION. 1; Cells; 4 uL; white, solid bottom, 1536-well Greiner assay plate. 2; Incubation; 2 hr; 37 degree C in 5% humidified CO2. 3; Compounds; 23 nL; Kalypsis pintool (Wako USA) equipped with a 1536-well pin head. 4; Incubation; 24 hr; 37 degree C in 5% humidfified CO2. 5; Reagent; 1 uL; Gly-Phe-7-Amino-4-trifluoromethylcoumarin. 6; Incubation; 30 min; 37 degree C in 5% humidfified CO2. 7; Detection; Fluorescence; Viewlux plate reader (PerkinElmer). 8; Reagent; 3 uL; SteadyGlo luciferase solution (Promega). 9; Incubation; 5 min; room temperature. 10; Detection; Luminescence; ViewLux plate reader (PerkinElmer). NOTES (numbers refer to Sequence numbers above) 1. HEK-293 cells expressing CMV-luciferase reporter (designated as SC cells) were suspended in phenol-red free DMEM and dispensed in assay plates using a Multidrop Combi dispenser (Thermo Fisher Scientific). 2. Assay plates were incubated. Evaporation was prevented by covering assay plates with metal lids containing holes to allow gas diffusion. 3. Compounds were added in a dose response manner with the final concentrations of 57, 11.4, 2.28, 0.46, 0.091, 0.018, 0.0037 uM. Vehicle-only plates, with DMSO being pin-transferred to columns 5-48, were inserted uniformly at the beginning and the end of each library to monitor and record any shifts in assay performance. 5. 125 uM Gly-Phe-7-Amino-4-trifluoromethylcoumarin (MP Biomedicals) working concentration was used at a final concentration of 25 uM. 7. To assess cell viability; the assay plates were read using the ViewLux high-throughput CCD imager (PerkinElmer), wherein single end-point fluorescence measurement was acquired (excitation 405/10; emission 540/25 nm). 8. Detection reagent SteadyGlo Luciferase (Promega) was added to the assay plate. 10. Luminescence is then measured on the ViewLux imager equipped with a clear emission filter using a 2 sec exposure. […]
Potency means the concentration at half of the fitted maximal effect; tags describe the fitted curve by direction and shape.

SMILES | Potency
CCOC(=O)c1ccc(N=c2sc(C(=O)OC)cc(=O)n2-c2ccc(C(=O)OCC)cc2)cc1 | inconclusive: 6.31 µM [cytotoxic, single point]
COc1ccccc1OCCN1CSC(=S)N(C)C1 | active: 11.2 µM
Cc1ccc(SC2=C(N(C)C)C(=O)c3ccccc3C2=O)cc1 | inconclusive: 35.5 µM [rising, partial curve]
O=C1/C(=C\c2cc(Cl)c(O)c(Cl)c2)SC(=S)N1Cc1ccccc1 | inactive
CCOC(=O)N1CCC(c2cc(=O)n3[nH]c(C)c(-c4ccc(F)cc4)c3n2)CC1 | inconclusive: 39.8 µM [cytotoxic, single point]
C/C(=N\NC(=O)CN(c1ccccc1)S(C)(=O)=O)c1ccccc1O | inconclusive: 12.6 µM [cytotoxic, partial curve, poor fit]
CCOc1ccccc1NC(=O)N1CCC(c2nc3ccccc3[nH]2)CC1 | inactive
CC(C)(C)N(Cc1ccc2c(c1)OCO2)C(=O)/C=C\S(=O)c1ccccc1 (stereo not drawn) | inconclusive: 7.08 µM [cytotoxic, single point]
Cc1nc2c(OCc3ccc(C(F)(F)F)cc3)cccn2c1N(C)C(=O)CCC1CCCC1 | inconclusive: 39.8 µM [cytotoxic, single point]
CN(C)CCCNc1nc2cc(-c3cccc(Cl)c3)sc2c(=O)n1C | inactive
O=C(Cc1coc2cc3c(cc12)CCC3)OCC(=O)N1CCCC1=O | inactive
N#Cc1c(Oc2ccc3ccccc3c2)sc(C(=O)c2ccccc2)c1N | inactive
Cc1ccc(C)c(CN2CCC(CNC(=O)Nc3ccc(C)c(C)c3)CC2)c1 | inactive
CCN(CC)c1ccc(/C=N/NC(=O)c2cccc(S(=O)(=O)N3CCOCC3)c2)c(O)c1 | inconclusive: 3.55 µM [rising, partial curve, poor fit]
COc1cc(-c2ccc3sc(-c4ccsc4)c(C#CCO)c3c2)cc(OC)c1OC | inconclusive: 39.8 µM [cytotoxic, single point]
CCOc1ccc(NCc2cccn2-c2nnc(N3CCC(C(=O)NCCCN4CC(C)CC(C)C4)CC3)s2)cc1 (stereo not drawn) | inactive
Cc1ccc2[nH]c(=O)c(CN(CCCN(C)C)C(=O)Nc3cccc(Cl)c3)cc2c1 | inconclusive: 25.1 µM [cytotoxic, partial curve, poor fit]
CCOc1ccc(NS(=O)(=O)c2ccc(C(=O)NNC(=O)c3ccccc3O)cc2)cc1 | inconclusive: 11.2 µM [cytotoxic, partial curve, poor fit]
CC(C)CC(=NNC(=O)c1ccncc1)c1cc(Cl)ccc1O | inconclusive: 3.55 µM [rising, partial curve]
O=C(NCC1CCCO1)c1cccc(Oc2ccc([N+](=O)[O-])cc2Cl)c1 (stereo not drawn) | inactive
O=C(CSc1ccc2ccccc2c1)Nc1nc2ccccc2[nH]1 | inactive
CCn1c(C)cc(C(=O)CN2C(=O)c3ccccc3S2(=O)=O)c1C | inactive
O=C(Nc1ccc(F)cc1)c1sccc1SCc1cccc(C(F)(F)F)c1 | inactive

SMILES | Potency
Cc1ccc2c(c1)C1CN(C)CCC1N2C(=S)NC(=O)c1ccc(Br)cc1 (stereo not drawn) | inconclusive: 5.01 µM [cytotoxic, partial curve, poor fit]
CCCNC(=O)c1ccc2c(=O)c(O)c(-c3cccc(Br)c3)[nH]c2c1 | inconclusive: 39.8 µM [rising, single point]
CCCc1nc(C)cc(N2CCN(c3ccccc3)CC2)n1 | inactive
Cc1ccc(C)c(NC(=O)CCC(=O)N/N=C/c2cc([N+](=O)[O-])ccc2O)c1 | inconclusive: 3.16 µM [cytotoxic, single point]
Nc1c(C(=O)NCCN2CCOCC2)c2nc3ccccc3nc2n1CCc1ccccc1F | inconclusive: 31.6 µM [rising, partial curve]
O=c1cc(C(F)(F)F)[nH]c2ccc(C(F)(F)F)cc12 | inconclusive: 7.08 µM [cytotoxic, partial curve, poor fit]
NS(=O)(=O)c1ccc(N2N=C(c3ccccc3)CC2c2cccc(Cl)c2)cc1 (stereo not drawn) | inactive
COc1cccc(CC2(CO)CCCN(Cc3[nH]c4ccc(C)cc4c3C)C2)c1 (stereo not drawn) | inconclusive: 12.6 µM [cytotoxic, partial curve, poor fit]
CC(=O)Nc1ccc(CNc2nc3cc(-c4ccccc4C)sc3c(=O)n2C)cc1 | inconclusive: 39.8 µM [cytotoxic, single point]
N#CC1=C(N)N2C(=C(C#N)C1c1ccc(Br)cc1)Nc1ccccc12 (stereo not drawn) | inconclusive: 3.55 µM [rising, partial curve]
c1ccc(-c2cccc(-c3ccccn3)n2)nc1 | inconclusive: 1.12 µM [cytotoxic, partial curve, poor fit]
CC(C)(C)c1cc[n+](C2=C([O-])c3ccccc3C(=O)/C2=N\S(=O)(=O)c2cccs2)cc1 | inconclusive: 3.98 µM [cytotoxic, partial curve, poor fit]
C(=C\c1nc(N2CCCC2)c2ccccc2n1)/c1ccccc1 | inconclusive: 3.16 µM [cytotoxic, single point]
CCc1nc2ccc(C(=O)NCCOc3ccc(OC)cc3)cn2c1N(CCC(C)C)CCN(C)C | inconclusive: 4.47 µM [cytotoxic, partial curve]
COc1ccc2nc(C)cc(SCC(=O)N/N=C/c3ccc(O)cc3O)c2c1 | active: 7.94 µM
COc1ccc2c(c1)C(SCC(=O)NCCc1ccc(Cl)cc1)CC(C)(C)O2 (stereo not drawn) | inactive
CS(=O)(=O)Nc1cccc(NC(=O)c2cccc3c(-c4cccc(C(N)=O)c4)coc23)c1 | active: 17.8 µM
CCCCCCc1cc2cc(S(=O)(=O)c3ccc(F)c(Cl)c3)c(=O)oc2cc1O | inconclusive: 3.98 µM [rising, partial curve]
C/[N+]([O-])=C\c1cccc(OCCN2CCN(c3ncc(C(F)(F)F)cc3Cl)CC2)c1 | inactive
O=C(Nc1ccc[n+](CC(=O)c2cccc3ccccc23)c1)c1ccccc1 | active: 3.16 µM
Cc1cc(C(=O)N/N=C/c2cc(Br)cc(Br)c2OC(=O)c2cccc(F)c2)n[nH]1 | inconclusive: 39.8 µM [rising, single point]
Cn1c(-[n+]2c(-c3ccccc3)cc(-c3ccccc3)cc2-c2ccccc2)nc2c([N+](=O)[O-])cccc21 | inconclusive: 4.47 µM [cytotoxic, single point]
O=C(NCC1CC1)c1ccc2c(c1)S(=O)(=O)c1cc(Cl)ccc1C2=O | inactive

SMILES | Potency
CCCC/C(C)=N/NC(=O)c1cn(-c2ccccc2)nc1-c1ccccc1 | inactive
Cc1ccc(N/C(N)=N/c2nc(C)cc(N3CCCCC3)n2)c(C)c1 | inconclusive: 6.31 µM [cytotoxic, single point]
CCN1CCN(Cc2ccc(NC(=O)c3ccc(C)c(NC(=O)c4nccnc4N)c3)cc2C(F)(F)F)CC1 | inactive
Cn1cccc1/C=N/N1CCN(Cc2ccccc2Cl)CC1 | inactive
Cn1c(SCC(=O)Nc2cc(Cl)cc(Cl)c2)nnc1-c1ccc2nonc2c1 | inactive
CCCCC(=O)N(CCOC)c1nnc(-c2ccccc2C)s1 | inconclusive: 3.98 µM [rising, partial curve, poor fit]
COc1ccc(CC2C(=O)NC(C)C(=O)N(C)C3Cc4ccc(cc4)Oc4cc(ccc4O)CC(C(=O)NC(C)C(=O)NC(C)C(=O)N2C)N(C)C3=O)cc1 (stereo not drawn) | active: 0.316 µM
Cc1cccc(C(=O)N[C@H](C(=O)Nc2ncc(C)s2)C(C)C)c1 | inconclusive: 12.6 µM [cytotoxic, partial curve, poor fit]
COc1ccc(-c2csc(Nc3ccc(S(N)(=O)=O)cc3)n2)cc1OC | inactive
CCCCn1c2ccc(F)cc2c2nnc(NN)nc21 | active: 14.1 µM
CCOC(=O)[C@H]1[C@H]2COc3ccc(OC)cc3[C@@H]2N2C(=O)c3cc(OC)c(OC)cc3NC(=O)[C@@]12C | inactive
[O-][n+]1onc2c1CCc1c-2nn(-c2ccccc2Cl)[n+]1[O-] | active: 25.1 µM
NC(=O)c1c(NC(=O)c2ccc(S(=O)(=O)N3CCOCC3)cc2)sc2c1CCCCC2 | inactive
CC(C)Nc1nc(-c2ccccn2)nc(-c2ccccc2)c1C#N | inactive
Cc1cc(N2CCN(Cc3nc(-c4ccc(Cl)cc4)oc3C)CC2)cc(C)n1 | inactive
COc1ccc(C(=O)NNC(=S)NC(=O)c2ccccc2)cc1 | inconclusive: 20 µM [cytotoxic, single point]
Cc1ccc(SCCC(=O)N/N=C/c2ccccc2O)cc1 | inconclusive: 2.24 µM [cytotoxic, partial curve]
Cc1cc(C)cc(NC(=O)CCc2nc3sc4c(c3c(=O)[nH]2)CCCC4)c1 | inconclusive: 1.26 µM [cytotoxic, partial curve, poor fit]
O=C(CSc1n[nH]c(-c2ccccn2)n1)Nc1ccccc1 | inconclusive: 15.8 µM [cytotoxic, partial curve]
COc1cc(/C=C/c2ccc(/C=C/c3cc(OC)c(OC)c(OC)c3)cc2)cc(OC)c1OC | inconclusive: 28.2 µM [rising, partial curve, poor fit]
C[C@@H]1CN([C@H](C)CO)S(=O)(=O)c2ccc(-c3ccc(C#N)cc3)cc2O[C@H]1CN(C)C(=O)Nc1cc(F)ccc1F | inconclusive: 28.2 µM [cytotoxic, single point]
O=C(CNC(=O)C1COc2ccccc2O1)N/N=C/c1ccc(O)cc1O (stereo not drawn) | inconclusive: 2.24 µM [cytotoxic, partial curve, poor fit]
